Molecular target: wild type HA ectodomain of H1 A/Michigan/45/2015 with C-terminal Foldon trimerization domain
Assay: ELISA

B1: multidomain antibody MD3606 (Fc fusion)
chain: EVQLVESGGGLVQPGGSLRLSCAVSISIFDIYAMDWYRQAPGKQRDLVATSFRDGSTNYADSVKGRFTISRDNAKNTLYLQMNSLKPEDTAVYLCHVSLYRDPLGVAGGMGVYWGKGALVTVSSGGGGSGGGGSEVQLVESGGGLVQAGGSLKLSCAASGRTYAMGWFRQAPGKEREFVAHINALGTRTYYSDSVKGRFTISRDNAKNTEYLEMNNLKPEDTAVYYCTAQGQWRAAPVAVAAEYEFWGQGTQVTVSSGGGGSGGGGSEVQLVESGGGLVQPGGSLRLSCAATGFTLENKAIGWFRQTPGSEREGVLCISKSGSWTYYTDSMRGRFTISRDNAENTVYLQMDSLKPEDTAVYYCATTTAGGGLCWDGTTFSRLASSWGQGTQVTVSSGGGGSGGGGSEVQLVESGGGLVQPGGSLKLSCAASGFTFSTSWMYWLRQAPGKGLEWVSVINTDGGTYYADSVKDRFTISRDNAKDTLYLQMSSLKSEDTAVYYCAKDWGGPEPTRGQGTQVTVSS[human IgG1 Fc left out]
B1 gave an EC50 of 0.8 nM.

Reference: US20220204567A1 (published 2022)
